pIC50: −log10 of the molar value. For at least one compound, name, drawing or mass did not settle the structure.
Target: GABAA receptor (rat brain cortical membranes, [35S]-TBPS binding)
Assay: not given
Details: Table I-4, 3 nM [35S]-TBPS, in the presence of 5 mM GABA

**Q.** COC[C@@]1(O)CC[C@H]2[C@H](CC[C@@H]3[C@@H]2CC[C@]2(C)[C@@H](C(C)=O)CCC[C@@H]32)C1 [I-L17, 1-((1S,4aS,4bR,6aR,8R,10aS,10bR,12aS)-8-hydroxy-8-(methoxymethyl)-12a-methyloctadecahydrochrysen-1-yl)ethan-1-one] was tested. Which pIC50 did it give?
**A.** Its pIC50 is 7.00 to 8.00.

**Q.** How did the pIC50 turn out when CC(=O)[C@@H]1[C@H](C)CC[C@H]2[C@@H]3CC[C@@H]4C[C@](C)(O)CC[C@@H]4[C@H]3CC[C@]12C [I-T6a, 1-((1R,2R,4aS,4bR,6aR,8R,10aS,10bR,12aS)-8-hydroxy-2,8,12a-trimethyloctadecahydrochrysen-1-yl)ethan-1-one] was run?
**A.** The pIC50 was 6.00 to 7.00.

**Q.** COC[C@@]1(O)CC[C@H]2[C@H](CC[C@@H]3[C@@H]2CC[C@]2(C)[C@@H](C(=O)Cn4cc(C#N)cn4)CCC[C@@H]32)C1 [I-L19, 1-(2-((1S,4aS,4bR,6aR,8R,10aS,10bR,12aS)-8-hydroxy-8-(methoxymethyl)-12a-methyloctadecahydrochrysen-1-yl)-2-oxoethyl)-1H-pyrazole-4-carbonitrile] was tested. Which pIC50 did it give?
**A.** The pIC50 was > 8.00.

**Q.** CCOC[C@@]1(O)CC[C@H]2[C@H](CC[C@@H]3[C@@H]2CC[C@]2(C)[C@@H](C(C)=O)CCC[C@@H]32)C1 [I-U11, 1-((1S,4aS,4bR,6aR,8R,10aS,10bR,12aS)-8-(ethoxymethyl)-8-hydroxy-12a-methyloctadecahydrochrysen-1-yl)ethan-1-one] was tested. Which pIC50 did it give?
**A.** Its pIC50 is 6.00 to 7.00.

**Q.** How did the pIC50 turn out when CCOC[C@@]1(O)CC[C@H]2[C@@H](CC[C@@H]3[C@@H]2CC[C@]2(C)C(=O)CCC[C@@H]32)C1 [I-B6, (4aS,4bR,6aS,8R,10aS,10bR,12aS)-8-(ethoxymethyl)-8-hydroxy-12a-methylhexadecahydrochrysen-1(2H)-one] was run?
**A.** Its pIC50 is 5.00 to 6.00.

**Q.** C[C@@]1(O)CC[C@H]2[C@H](CC[C@@H]3[C@@H]2CC[C@]2(C)[C@@H](C(=O)Cn4cc(C#N)cn4)CCC[C@@H]32)C1 [I-D9, 1-(2-((1S,4aS,4bR,6aR,8R,10aS,10bR,12aS)-8-hydroxy-8,12a-dimethyloctadecahydrochrysen-1-yl)-2-oxoethyl)-1H-pyrazole-4-carbonitrile] was tested. Which pIC50 did it give?
**A.** Its pIC50 is > 8.00.

**Q.** How did the pIC50 turn out when C[C@@]1(O)CC[C@H]2[C@H](CC[C@@H]3[C@@H]2CC[C@]2(C)[C@@H](CNS(=O)(=O)c4ccccc4)CCC[C@@H]32)C1 [I-A7, N-(((1S,4aS,4bR,6aR,8R,10aS,10bR,12aS)-8-hydroxy-8,12a-dimethyloctadecahydrochrysen-1-yl)methyl)benzenesulfonamide] was run?
**A.** Its pIC50 is 7.00 to 8.00.

Same assay, conditions: Table I-5, 3 nM [35S]-TBPS, in the presence of 5 mM GABA

**Q.** With C[C@@]1(O)CC[C@H]2[C@H](CC[C@@H]3[C@@H]2CC[C@]2(C)[C@@H](C(=O)Cn4cc(C#N)cn4)C[C@@H]32)C1 [I-AA10, 1-(2-((1S,2aS,2bR,4aR,6R,8aS,8bR,10aS)-6-hydroxy-6,10a-dimethylhexadecahydrocyclobuta[a]phenanthren-1-yl)-2-oxoethyl)-1H-pyrazole-4-carbonitrile] as the compound, how does the pIC50 read?
**A.** Its pIC50 is 6.00 to 7.00.

Same assay, conditions: Table I-6, 3 nM [35S]-TBPS, in the presence of 5 mM GABA

**Q.** With C[C@@]1(O)CC[C@H]2[C@H](CC[C@@H]3[C@@H]2CC[C@]2(C)[C@@H](C(=O)Cn4cc(C#N)cn4)CCCC[C@@H]32)C1 [I-BA11a, 1-(2-((2R,4aS,4bR,6aS,7S,11aS,11bR,13aR)-2-hydroxy-2,6a-dimethyloctadecahydro-1H-cyclohepta[a]phenanthren-7-yl)-2-oxoethyl)-1H-pyrazole-4-carbonitrile] as the compound, how does the pIC50 read?
**A.** The pIC50 was 7.00 to 8.00.

**Q.** C[C@@]1(O)CC[C@H]2[C@H](CC[C@@H]3[C@@H]2CC[C@]2(C)[C@H](C(=O)Cn4cc(C#N)cn4)CCCC[C@@H]32)C1 [I-BA11, 1-(2-((2R,4aS,4bR,6aS,7R,11aS,11bR,13aR)-2-hydroxy-2,6a-dimethyloctadecahydro-1H-cyclohepta[a]phenanthren-7-yl)-2-oxoethyl)-1H-pyrazole-4-carbonitrile] was tested. Which pIC50 did it give?
**A.** Its pIC50 is 7.00 to 8.00.

**Q.** C[C@@]1(O)CC[C@H]2[C@H](CC[C@@H]3[C@@H]2CC[C@]2(C)C(=O)CCCC[C@@H]32)C1 [I-BA3, (2R,4aS,4bR,6aS,11aS,11bR,13aR)-2-hydroxy-2,6a-dimethyloctadecahydro-7H-cyclohepta[a]phenanthren-7-one] was tested. Which pIC50 did it give?
**A.** The pIC50 was 6.00 to 7.00.

Target: TBPS binding
Assay: Steroid inhibition of TBPS binding
Details: Table II-2

**Q.** With C[C@]1(O)CC[C@@H]2CC[C@@H]3[C@H](CC[C@]4(C)[C@@H](C(=O)Cn5cc(C#N)cn5)CC[C@@H]34)[C@@]2(C)CC1 [II-C5, 1-(2-((1S,3aS,3bR,5aS,8S,10aS,10bS,12aS)-8-hydroxy-8,10a,12a-trimethyloctadecahydrocyclohepta[a]cyclopenta[f]naphthalen-1-yl)-2-oxoethyl)-1H-pyrazole-4-carbonitrile] as the compound, how does the pIC50 read?
**A.** The pIC50 was 7.00 to 8.00.

**Q.** How did the pIC50 turn out when COC[C@]1(O)CC[C@H]2CC[C@@H]3[C@H](CC[C@]4(C)[C@@H](C(C)=O)CC[C@@H]34)[C@H]2CC1 [II-F19, 1-((1S,3aS,3bR,5aR,8S,10aS,10bR,12aS)-8-hydroxy-8-(methoxymethyl)-12a-methyloctadecahydrocyclohepta[a]cyclopenta[f]naphthalen-1-yl)ethan-1-one] was run?
**A.** The pIC50 was 6.00 to 7.00.
